Laboratory results: PubChem BioAssay AID624202 (National Center for Advancing Translational Sciences (NCATS), 2012)
The campaign covered roughly 380,000 compounds. About 4,000 (1.1%) were called active. The shares of active, inactive and inconclusive entries below differ from those in the screen. The call rests on the fitted dose curve; in most records, active means well fitted activation curve with a large enough effect; inconclusive means small, poorly fitted or top-dose-only effect; inactive means no such curve, though single readings can be large or run the other way. A potency beside an inconclusive call is a rough fit, not a confirmed value.

Assay: qHTS Assay to Identify Small Molecule Activators of BRCA1 Expression; further: nearly all actives have a fitted effect of over 80% in size
Conditions: MCF7-BRCA1-FFLuc reporter, luminescence, 48 h; activation: at 46.1 µM (top of the series), scaled: vehicle 0%, 10 µM genistein 100% unless noted
Summary of the method: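 Luminescence from a BRCA1-driven firefly luciferase in MCF7 cells was read after 48 h compound exposure at 37 C. Data normalized against DMSO and a 10microM genistein activation control, then curve-fitted across the titration.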
Potency means the concentration at half of the fitted maximal effect; tags describe the fitted curve by direction and shape.

Which Potency does the source give for `CCCCNc1cnn(-c2ccccc2)c(=O)c1Cl` here?
The Potency was inconclusive: 8.91 µM [activator, partial curve, poor fit].

Which Potency does the source give for `O=C(CSc1nc2ccccc2[nH]1)N1CCCCC1` here?
The Potency was inconclusive: 7.08 µM [activator, partial curve, poor fit].

With `O=C(NC1CCCCCC1)c1ccc(CN2CCOCC2)cc1` as the molecule, how does the Potency read?
The Potency was inconclusive: 7.94 µM [activator, partial curve, poor fit].

For `O=C1C(Cl)=C(Oc2ccccc2)C(=O)c2ccccc21`, which activation is on record?
Its activation is inconclusive: -99.4% [activator].

Which Potency does the source give for `COc1cccc(-c2cn3nc(C)c(C)nc3n2)c1` here?
Its Potency is inconclusive: 0.631 µM [activator, full curve, poor fit].

For `CCCOC1CCCN(C(=O)c2cc(COc3c(F)cccc3F)on2)C1` (stereo not given), which Potency is on record?
Its Potency is inconclusive: 17.8 µM [activator, partial curve, poor fit].

With `COc1cc(OC)cc(-c2nc(-c3ccccc3)no2)c1` as the molecule, how does the Potency read?
Its Potency is inconclusive: 10 µM [activator, partial curve, poor fit].

With `O=C(CNC(=S)N(Cc1ccccc1)Cc1cccs1)NCc1ccc(F)cc1` as the molecule, how does the “activation” value read?
Its value is inactive: -45.4%.

With `Cc1cc(NC(=O)CSc2nc3c(cc2C#N)CCCCC3)no1` as the molecule, how does the Potency read?
Its Potency is inconclusive: 1.12 µM [activator, full curve, poor fit].

Which “activation” value does the source give for `Cc1ccc(OCCn2c(CCNC(=O)C(C)C)nc3ccccc32)cc1` here?
Its value is inactive: -6.03%.

For `Cn1ccnc1SCC(=O)c1ccc(Br)cc1`, which Potency is on record?
Its Potency is inconclusive: 11.2 µM [activator, partial curve, poor fit].

With `Nc1cccc(-c2nc3ccccc3[nH]2)c1` as the molecule, how does the Potency read?
The Potency was active: 10 µM.

For `Cc1cccc(-n2nnnc2SCC(=O)c2cc(C)n(CC3CCCO3)c2C)c1` (stereo not given), which Potency is on record?
The Potency was inconclusive: 15.8 µM [activator, partial curve, poor fit].

Which Potency does the source give for `Cc1ccc(/C=C2/CCc3c([nH]c4ccccc34)C2=O)cc1` here?
The Potency was inconclusive: 1 µM [activator, full curve, poor fit].

For `O=C(CNCc1ccccc1Cl)Nc1ccc2c(c1)OCCO2`, which Potency is on record?
The Potency was active: 10 µM.

With `COCCCn1c(SCC(=O)Nc2cccc(C)n2)nnc1-c1ccco1` as the molecule, how does the “activation” value read?
The value was inactive: -2.21%.

For `COc1ccc(OCc2cc(C(=O)N3CCN(C4CCCC4)CC3)no2)c(Cl)c1`, which Potency is on record?
The Potency was inconclusive: 15.8 µM [activator, partial curve, poor fit].

For `O=C(CCc1ccccc1)NCCSc1ccccc1`, which Potency is on record?
The Potency was active: 5.62 µM.

Which Potency does the source give for `CCN1CCN(Cc2ccc(OCc3ccccc3)c(OC)c2)CC1` here?
The Potency was inconclusive: 14.1 µM [activator, partial curve, poor fit].

Which Potency does the source give for `N/C(=N\OC(=O)CCCc1ccccc1)c1ccccn1` here?
The Potency was active: 11.2 µM.
